Data: the supplement of paper PMC3334620
The full ranking holds about 33,000 sequences; the median of “E-score (-0.5 to 0.5)” is about -0.016, and the highest 2% start at about 0.31. Some of the results follow.

Biological target: Cst6 (UniProt P40535)
Assay: PBM E-score (8-mer binding enrichment) (E-score (-0.5 to 0.5)); higher = stronger / more preferred TF binding; most listed sequences are background and not binding sites
Settings: protein concentration: 200 nM; construct: GST-DNA-binding domain
Description: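 Universal 'all 10-mer' protein binding microarrays (Agilent AMADID 015681) probed with GST-tagged S. cerevisiae TFs (full-length or DBD) made by in vitro transcription/translation (PURExpress), about 100-200 nM. Bound TF was detected with fluorescent anti-GST. Each ungapped 8-mer (which stands for itself and its reverse complement) is scored by the PBM enrichment score (E-score), a modified Wilcoxon-Mann-Whitney statistic from -0.5 to +0.5, computed with the Universal PBM Analysis Suite. Scale: above 0.35 generally sequence-specific binding.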

Sequence | PBM E-score
AGTAAGTA | 0.22
CGGTCCCA | -0.324
CCGGCGAA | -0.0664
CCGACACG | -0.12
ATGGGTGA | 0.0883
CTCTCTAC | 0.0611
GGGCACCA | -0.203
CGGTCGCA | -0.216
GTTCCACA | -0.157
CACGCCGA | -0.222
CGCAGGCA | -0.0708
ATACGTAA | 0.463
CCAACCAG | -0.132
CAAATGGG | -0.158
GGAGCCAC | -0.209
ACTATTAT | 0.182
ACTGGTTC | -0.0381
CCGCTGCG | -0.00591
ATGGTCTC | -0.0775
ATCGAGCA | -0.0198
ACACATGA | 0.107
ATAGCGTG | -0.132

Sequence | PBM E-score
ATTGATTC | 0.178
TCAACTGA | 0.0881
AAATGGTG | 0.194
AGGATAGC | 0.0257
ACCGTCTG | 0.00517
AACAGAAC | 0.032
CACCTTAC | 0.0625
AGGCTCTG | -0.106
TAGAAGGA | -0.285
TATCCAGA | -0.00054
CCGGGCCG | -0.14
ATGGAATG | -0.077
ACTGTATC | -0.0539
AACGCACC | -0.106
AAAAGGGG | -0.238
GGAAATAA | 0.219
ATCTTCGC | 0.0288
ATACAGTC | -0.143
CGCCATCA | -0.178
GGGGTGTA | -0.229
CGGGTTAA | -0.07
AGCACCTA | -0.227

Sequence | PBM E-score
CATGACGG | 0.38
ATAGGTGC | -0.00875
TCGTAGAA | -0.0506
CATTACAG | 0.0623
AGGCATAG | -0.0217
CCCCGGCA | -0.251
CGAGATAA | 0.151
ACGCTCTC | -0.165
TCATATGA | 0.248
GTAATTAA | 0.188
GGTATCTA | 0.0531
CTAACGTA | 0.281
AGAGTGAC | 0.135
CGTTGAGA | 0.0363
AGGCTTTC | 0.0839
ACAACTTG | -0.0384
CCTAATGA | 0.0818
ACTATTGG | -0.185
CTATGTCA | 0.392
ACACCACA | 0.0618
ACCCTTGC | -0.229
ACGGCAAC | 0.2

Sequence | PBM E-score
GATTATGC | -0.108
GATATAAA | 0.211
AAGAACCT | -0.0978
CCCGAGCG | -0.168
AACCGGGT | -0.14
ACACAGAA | 0.00996
CAGGTCAG | -0.119
GCAGGTCA | -0.21
AAGCAGCC | -0.0403
GGAAACGA | 0.127
AACCGGTT | 0.00038
AATGCCAT | 0.196
TCCGCCGA | -0.078
AGAATTAA | 0.0926
AAGTCATG | 0.185
CACTGAGA | -0.134
AAATGAGA | 0.056
ACACATTC | -0.0963
CGGCAGAG | -0.306
AATCGTTG | 0.024
